# Some of the results follow. Binding of human transcription factors and regulators to the viral nucleoprotein by AlphaScreen, crude cell-free proteins, amounts not normalised, one pass. Fold of the Venus control; higher = more signal. No active / inactive call. Single-pass screen; sequences are the whole Swiss-Prot entries looked up by name.
# B1: ID1, P41134 (protein)
# chain: MKVASGSTATAAAGPSCALKAGKTASGAGEVVRCLSEQSVAISRCAGGAGARLPALLDEQQVNVLLYDMNGCYSRLKELVPTLPQNRKVSKVEILQHVIDYIRDLQLELNSESEVGTPGGRGLPVRAPLSTLNGEISALTAEAACVPADDRILCR
# B2: POU6F2, P78424 (protein)
# chain: MSALLQDPMIAGQVSKPLLSVRSEMNAELRGEDKAATSDSELNEPLLAPVESNDSEDTPSKLFGARGNPALSDPGTPDQHQASQTHPPFPVGPQPLLTAQQLASAVAGVMPGGPPALNQPILIPFNMAGQLGGQQGLVLTLPTANLTNIQGLVAAAAAGGIMTLPLQNLQATSSLNSQLQQLQLQLQQQQQQQQQQPPPSTNQHPQPAPQAPSQSQQQPLQPTPPQQPPPASQQPPAPTSQLQQAPQPQQHQPHSHSQNQNQPSPTQQSSSPPQKPSQSPGHGLPSPLTPPNPLQLVNNPLASQAAAAAAAMSSIASSQAFGNALSSLQGVTGQLVTNAQGQIIGTIPLMPNPGPSSQAASGTQGLQVQPITPQLLTNAQGQIIATVIGNQILPVINTQGITLSPIKPGQQLHQPSQTSVGQAASQGNLLHLAHSQASMSQSPVRQASSSSSSSSSSSALSVGQLVSNPQTAAGEVDGVNLEEIREFAKAFKIRRLSLGLTQTQVGQALSATEGPAYSQSAICRHTILRSHFFLPQEAQENTIASSLTAKLNPGLLYPARFEKLDITPKSAQKIKPVLERWMAEAEARHRAGMQNLTEFIGSEPSKKRKRRTSFTPQALEILNAHFEKNTHPSGQEMTEIAEKLNYDREVVRVWFCNKRQALKNTIKRLKQHEPATAVPLEPLTDSLEENS
# B3: NR0B2, Q15466 (protein)
# chain: MSTSQPGACPCQGAASRPAILYALLSSSLKAVPRPRSRCLCRQHRPVQLCAPHRTCREALDVLAKTVAFLRNLPSFWQLPPQDQRRLLQGCWGPLFLLGLAQDAVTFEVAEAPVPSILKKILLEEPSSSGGSGQLPDRPQPSLAAVQWLQCCLESFWSLELSPKEYACLKGTILFNPDVPGLQAASHIGHLQQEAHWVLCEVLEPWCPAAQGRLTRVLLTASTLKSIPTSLLGDLFFRPIIGDVDIAGLLGDMLLLR
# B4: CYTL1, Q9NRR1 (protein)
# chain: MRTPGPLPVLLLLLAGAPAARPTPPTCYSRMRALSQEITRDFNLLQVSEPSEPCVRYLPRLYLDIHNYCVLDKLRDFVASPPCWKVAQVDSLKDKARKLYTIMNSFCRRDLVFLLDDCNALEYPIPVTTVLPDRQR
# B5: MSC, O60682 (protein)
# chain: MSTGSVSDPEEMELRGLQREYPVPASKRPPLRGVERSYASPSDNSSAEEEDPDGEEERCALGTAGSAEGCKRKRPRVAGGGGAGGSAGGGGKKPLPAKGSAAECKQSQRNAANARERARMRVLSKAFSRLKTSLPWVPPDTKLSKLDTLRLASSYIAHLRQLLQEDRYENGYVHPVNLTWPFVVSGRPDSDTKEVSAANRLCGTTA
# B6: IKZF1, Q13422 (protein)
# chain: MDADEGQDMSQVSGKESPPVSDTPDEGDEPMPIPEDLSTTSGGQQSSKSDRVVASNVKVETQSDEENGRACEMNGEECAEDLRMLDASGEKMNGSHRDQGSSALSGVGGIRLPNGKLKCDICGIICIGPNVLMVHKRSHTGERPFQCNQCGASFTQKGNLLRHIKLHSGEKPFKCHLCNYACRRRDALTGHLRTHSVGKPHKCGYCGRSYKQRSSLEEHKERCHNYLESMGLPGTLYPVIKEETNHSEMAEDLCKIGSERSLVLDRLASNVAKRKSSMPQKFLGDKGLSDTPYDSSASYEKENEMMKSHVMDQAINNAINYLGAESLRPLVQTPPGGSEVVPVISPMYQLHKPLAEGTPRSNHSAQDSAVENLLLLSKAKLVPSEREASPSNSCQDSTDTESNNEEQRSGLIYLTNHIAPHARNGLSLKEEHRAYDLLRAASENSQDALRVVSTSGEQMKVYKCEHCRVLFLDHVMYTIHMGCHGFRDPFECNMCGYHSQDRYEFSSHITRGEHRFHMS
# B7: HMGB1, P09429 (protein)
# chain: MGKGDPKKPRGKMSSYAFFVQTCREEHKKKHPDASVNFSEFSKKCSERWKTMSAKEKGKFEDMAKADKARYEREMKTYIPPKGETKKKFKDPNAPKRPPSAFFLFCSEYRPKIKGEHPGLSIGDVAKKLGEMWNNTAADDKQPYEKKAAKLKEKYEKDIAAYRAKGKPDAAKKGVVKAEKSKKKKEEEEDEEDEEDEEEEEDEEDEDEEEDDDDE
# B8: BATF, Q16520 (protein)
# chain: MPHSSDSSDSSFSRSPPPGKQDSSDDVRRVQRREKNRIAAQKSRQRQTQKADTLHLESEDLEKQNAALRKEIKQLTEELKYFTSVLNSHEPLCSVLAASTPSPPEVVYSAHAFHQPHVSSPRFQP
# B9: NUCKS1, Q9H1E3 (protein)
# chain: MSRPVRNRKVVDYSQFQESDDADEDYGRDSGPPTKKIRSSPREAKNKRRSGKNSQEDSEDSEDKDVKTKKDDSHSAEDSEDEKEDHKNVRQQRQAASKAASKQREMLMEDVGSEEEQEEEDEAPFQEKDSGSDEDFLMEDDDDSDYGSSKKKNKKMVKKSKPERKEKKMPKPRLKATVTPSPVKGKGKVGRPTASKASKEKTPSPKEEDEEPESPPEKKTSTSPPPEKSGDEGSEDEAPSGED
# B10: MEF2D, Q14814 (protein)
# chain: MGRKKIQIQRITDERNRQVTFTKRKFGLMKKAYELSVLCDCEIALIIFNHSNKLFQYASTDMDKVLLKYTEYNEPHESRTNADIIETLRKKGFNGCDSPEPDGEDSLEQSPLLEDKYRRASEELDGLFRRYGSTVPAPNFAMPVTVPVSNQSSLQFSNPSGSLVTPSLVTSSLTDPRLLSPQQPALQRNSVSPGLPQRPASAGAMLGGDLNSANGACPSPVGNGYVSARASPGLLPVANGNSLNKVIPAKSPPPPTHSTQLGAPSRKPDLRVITSQAGKGLMHHLTEDHLDLNNAQRLGVSQSTHSLTTPVVSVATPSLLSQGLPFSSMPTAYNTDYQLTSAELSSLPAFSSPGGLSLGNVTAWQQPQQPQQPQQPQPPQQQPPQPQQPQPQQPQQPQQPPQQQSHLVPVSLSNLIPGSPLPHVGAALTVTTHPHISIKSEPVSPSRERSPAPPPPAVFPAARPEPGDGLSSPAGGSYETGDRDDGRGDFGPTLGLLRPAPEPEAEGSAVKRMRLDTWTLK
# B11: ZSCAN9, O15535 (protein)
# chain: MNTNSKEVLSLGVQVPEAWEELLTMKVEAKSHLQWQESRLKRSNPLAREIFRRHFRQLCYQETPGPREALTRLQELCYQWLRPHVSTKEQILDLLVLEQFLSILPKELQGWVREHCPESGEEAVILLEDLERELDEPQHEMVAHRHRQEVLCKEMVPLAEQTPLTLQSQPKEPQLTCDSAQKCHSIGETDEVTKTEDRELVLRKDCPKIVEPHGKMFNEQTWEVSQQDPSHGEVGEHKDRIERQWGNLLGEGQHKCDECGKSFTQSSGLIRHQRIHTGERPYECNECGKAFSRSSGLFNHRGIHNIQKRYHCKECGKVFSQSAGLIQHQRIHKGEKPYQCSQCSKSYSRRSFLIEHQRSHTGERPHQCIECGKSFNRHCNLIRHQKIHTVAELV
# B12: ZSCAN5B, A6NJL1 (protein)
# chain: MAANWTLSWGQGGPCNSPGSDTPRSVASPETQLGNHDRNPETWHMNFRMFSCPEESDPIQALRKLTELCHLWLRPDLHTKEQILDMLVMEQFMISMPQELQVLVKVNGVQSCKDLEDLLRNNRRPKKWSIVNLLGKEYLMLNSDVEMAEAPASVRDDPRDVSSQWASSVNQMHPGTGQARREQQILPRVAALSRRQGEDFLLHKSIDVTGDPNSPRPKQTLEKDLKENREENPGLSSPEPQLPKSPNLVRAKEGKEPQKRASVENVDADTPSACVVEREALTHSGNRGDALNLSSPKRSKPDASSISQEEPQGEATPVGNRESPGQAEINPVHSPGPAGPVSHPDGQEAKALPPFACDVCNKSFKYFSQLSIHRRSHTGDRPFQCDLCRKRFLQPSDLRVHQRVHTGERPYMCDVCQKRFAHESTLQGHKRIHTGERPFKCKYCSKVFSHKGNLNVHQRTHSGEKPYKCPTCQKAFRQLGTFKRHLKTHRETTSQ
# B13: E2F7, Q96AV8 (protein)
# chain: MEVNCLTLKDLISPRQPRLDFAVEDGENAQKENIFVDRSRMAPKTPIKNEPIDLSKQKKFTPERNPITPVKFVDRQQAEPWTPTANLKMLISAASPDIRDREKKKGLFRPIENKDDAFTDSLQLDVVGDSAVDEFEKQRPSRKQKSLGLLCQKFLARYPSYPLSTEKTTISLDEVAVSLGVERRRIYDIVNVLESLHLVSRVAKNQYGWHGRHSLPKTLRNLQRLGEEQKYEEQMAYLQQKELDLIDYKFGERKKDGDPDSQEQQLLDFSEPDCPSSSANSRKDKSLRIMSQKFVMLFLVSKTKIVTLDVAAKILIEESQDAPDHSKFKTKVRRLYDIANVLTSLALIKKVHVTEERGRKPAFKWIGPVDFSSSDEELVDVSASVLPELKRETYGQIQVCAKQKLARHGSFNTVQASERIQRKVNSEPSSPYREEQGSGGYSLEIGSLAAVYRQKIEDNSQGKAFASKRVVPPSSSLDPVAPFPVLSVDPEYCVNPLAHPVFSVAQTDLQAFSMQNGLNGQVDVSLASAASAVESLKPALLAGQPLVYVPSASLFMLYGSLQEGPASGSGSERDDRSSEAPATVELSSAPSAQKRLCEERKPQEEDEPATKRQSREYEDGPLSLVMPKKPSDSTDLASPKTMGNRASIPLKDIHVNGQLPAAEEISGKATANSLVSSEWGNPSRNTDVEKPSKENESTKEPSLLQYLCVQSPAGLNGFNVLLSGSQTPPTVGPSSGQLPSFSVPCMVLPSPPLGPFPVLYSPAMPGPVSSTLGALPNTGPVNFSLPGLGSIAQLLVGPTAVVNPKSSTLPSADPQLQSQPSLNLSPVMSRSHSVVQQPESPVYVGHPVSVVKLHQSPVPVTPKSIQRTHRETFFKTPGSLGDPVLKRRERNQSRNTSSAQRRLEIPSGGAD
# Molecular target: nucleoprotein N of Crimean-Congo hemorrhagic fever virus
# Assay: AlphaScreen luminescence signal relative to Venus negative control (fold); higher = stronger binding to CCHFV N
# Procedure: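 AlphaScreen binding of cell-free made, FLAG-GST-tagged human transcription factors and regulators (crude translation products) to biotinylated N protein; signal as fold of the FLAG-GST-Venus control. One pass.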
row,Binder,AlphaScreen luminescence signal
1,B1,1.35
2,B2,2.28
3,B3,2.14
4,B4,1.63
5,B5,3.35
6,B6,1.72
7,B7,2.33
8,B8,1.21
9,B9,1.12
10,B10,1.81
11,B11,2.56
12,B12,5.58
13,B13,2.51

# Reference: the supplement of paper PMC12423691
